The shares of active, inactive and inconclusive entries below differ from those in the screen. For part of these data: Potencies beside an inconclusive call are fits to weak or partial responses and may not hold up. Active and inactive are the calls of the source. Calls come from the whole dose curve; as a rule, active = well fitted curve in the direction sought with a large enough effect; inconclusive = small, poorly fitted or top-dose-only effect, or another doubt; inactive = no such curve, though single readings can be large; an effect the other way counts as inactive or inconclusive.
Experiments:
[1] = OV-KATE Cancer Cell Toxicity qHTS against the NCATS CANVASS Library (AID 1347345); note: potency is the fitted concentration of half-maximal effect; for activity change, negative = cytotoxicity: % is set by controls: 0 for no effect and ±100 for the full control effect
How it was run: (§1)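 Per well, 1000 cells; exposure 72 h with compound at 11 final concentrations; readout CellTiter-Glo luminescence.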

[2] = A2780 Cisplatin Sensitive Ovarian Cancer Cell Toxicity qHTS against the NCATS CANVASS Library (AID 1347353); note: nearly all actives have a fitted effect of over 60% in size
How it was run: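 Luminescent ATP content (ATPLite, 10 min at room temperature) served as the read-out after cells had been exposed to compounds for 72 hours at 37 °C. Dosing followed an 11-point concentration series.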

[3] = HPAF-II 24hr Apoptosis Induction qHTS against the NCATS CANVASS Library (AID 1347356); note: 0% is about no effect
How it was run: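 Luminescent caspase-3/7 signal (DEVD substrate, Caspase-Glo) served as read-out, taken 15 min after reagent addition to HPAF-II cells exposed 24 h to compounds.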

[4] = SDT Cancer Cell Toxicity qHTS against the NCATS CANVASS Library (AID 1347365); note: potency is the fitted concentration of half-maximal effect; nearly all actives have a fitted effect of over 60% in size
How it was run: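 qHTS, SDT dog glioma line, 500 cells/well; cpds 11 pts; 72 hr, 37C, 5% CO2; CellTiterGlo ATP luminescence.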

[5] = qHTS for inhibitors of ER calcium dysfunction: SERCaMP assay screened against the NCATS CANVASS Library (AID 1347393); conditions: SH-SY5Y GLuc-SERCaMP (Gaussia luciferase released on ER calcium loss) secretion, thapsigargin, luminescence; activity change, negative = inhibition: at 76.6 µM (top of the series) unless noted; note: nearly all actives have a fitted effect of over 40% in size; note: potency is the fitted concentration of half-maximal effect;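 for activity change, negative = inhibition: % is set by controls: 0 for no effect and ±100 for the full control effect; lower secreted reporter signal means inhibitor of ER calcium depletion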
How it was run: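 qHTS in SH-SY5Y reporter cells: 16 h compound pretreatment, 4 h thapsigargin, then secreted Gaussia luciferase measured by luminescence.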

[6] = Vero-766 cells viability qHTS against the NCATS CANVASS Library: Counterscreen for Zika virus inhibition assay (AID 1347394); conditions: Vero 766 viability, CellTiter-Glo luminescence, 72 h; activity change, negative = cytotoxic: at 46.1 µM (top of the series); note: nearly all actives have a fitted effect of over 60% in size; note: potency is the fitted concentration of half-maximal effect; for activity change, negative = cytotoxic: % is set by controls: 0 for no effect and ±100 for the full control effect
How it was run: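 Counterscreen for toxicity: Vero 766 cells exposed 72 h to an 11-point compound series, viability by CellTiter-Glo.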

[7] = qHTS for inhibitors of Wild type Zika virus screened against the NCATS CANVASS Library (AID 1347396);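 note: ATP luminescence of surviving cells so rescue from viral cell killing; % is set by controls: 0 for no effect and ±100 for the full control effect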
How it was run: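 Protection against wild-type Zika cytopathic effect is measured in African green monkey Vero 766 cells exposed to an 11-point compound series. Surviving cells are quantified by CellTiter Glo luminescence after 72 h.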

[8] = HPAF-II Cancer Cell Toxicity qHTS against the NCATS CANVASS Library (AID 1347346); note: nearly all actives have a fitted effect of over 55% in size; note: potency is the fitted concentration of half-maximal effect; for activity change, negative = cytotoxicity: % is set by controls: 0 for no effect and ±100 for the full control effect
How it was run: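 Luminescence from CellTiter-Glo, added after 72 h compound exposure and a 15 min room-temperature incubation, served as the viability readout. HPAF-II cells (1000/well) received an 11-point concentration series.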

[9] = UWB1.289 Cancer Cell Toxicity qHTS against the NCATS CANVASS Library (AID 1347347); note: potency is the fitted concentration of half-maximal effect; nearly all actives have a fitted effect of over 60% in size
How it was run: as §1

[10] = Panc-1005 Cancer Cell Toxicity qHTS against the NCATS CANVASS Library (AID 1347349)
How it was run: as §1

[11] = U-118MG Cancer Cell Toxicity qHTS against the NCATS CANVASS Library (AID 1347351); note: potency is the fitted concentration of half-maximal effect
How it was run: as §1

[12] = COV-362 Cancer Cell Toxicity qHTS against the NCATS CANVASS Library (AID 1347352); note: potency is the fitted concentration of half-maximal effect
How it was run: (§2)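 Luminescent ATP read-out (CellTiter-Glo, 15min at room temperature) measures survival after cells face an 11-point compound series for 72 hours at 37 degrees C/5% CO2.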

[13] = UWB1.289-WTBRCA1 Cancer Cell Toxicity qHTS against the NCATS CANVASS Library (AID 1347354); note: potency is the fitted concentration of half-maximal effect
How it was run: as §2

[14] = tested on: NAD(P)H diaphorase (Clostridium kluyveri); experiment: Diaphorse counterscreen qHTS: Assay Interference Panel against the NCATS CANVASS Library (AID 1347362); note: 0% is about no effect
How it was run: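 Clostridium kluyveri diaphorase in PBS with 0.01% Tween-20 was preincubated 15 min at room temperature in the dark with compounds (11-point series). Resorufin fluorescence (ex 525/20, em 598/25) was read 5 min after adding resazurin/NADH.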

[15] = KB-8-5-11 Cancer Cell Toxicity qHTS against the NCATS CANVASS Library (AID 1347364); conditions: activity change, negative = toxicity: at 46.1 µM (top of the series); note: potency is the fitted concentration of half-maximal effect; nearly all actives have a fitted effect of over 75% in size
How it was run: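 Plate 500 KB-8-5-11 cells per well in DMEM + 10% FBS, add compounds by pin transfer, incubate 72 hr at 37C. Add CellTiter-Glo, wait 10 minutes at room temperature, read luminescence.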

[16] = KB-3-1 Cancer Cell Toxicity qHTS against the NCATS CANVASS Library (AID 1347366); note: potency is the fitted concentration of half-maximal effect; nearly all actives have a fitted effect of over 75% in size
How it was run: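 Cytotoxicity toward KB-3-1 cells (500/well, DMEM + 10% FBS) was scored by CellTiter-Glo luminescence following 72 hr exposure at 37C, with bortezomib titrated as control.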

[17] = G06 Cancer Cell Toxicity qHTS against the NCATS CANVASS Library (AID 1347368)
How it was run: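 Dog G06 glioma line, 500 cells/well; cpds pin-transferred, 11-pt; 72 hr, 37C/5% CO2; CellTiterGlo luminescence (ATP) endpoint.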

[18] = MCF7 Cancer Cell Toxicity qHTS against the NCATS CANVASS Library (AID 1347369); conditions: activity change, negative = cytotoxicity: at 46 µM (top of the series); note: potency is the fitted concentration of half-maximal effect
How it was run: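 This 72 hr qHTS scored MCF7 viability by CellTiterGlo luminescence, with 500 cells/well; bortezomib titration ran as control.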

[19] = J3T Cancer Cell Toxicity qHTS against the NCATS CANVASS Library (AID 1347371); note: potency is the fitted concentration of half-maximal effect
How it was run: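 Cells plated at 500 per well, compounds pin-transferred, plates incubated 72 hr at 37C, then CellTiterGlo added and luminescence read to measure ATP content.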

[20] = qHTS for Hypoxia signaling pathway (HIF-1) antagonists against the NCATS CANVASS Library (AID 1347374); note: nearly all actives have a fitted effect of over 60% in size; note: potency is the fitted concentration of half-maximal effect
How it was run: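 HRE-bla ME-180 cells in medium with 0.5% dialyzed FBS received compounds (11-point series) plus CoCl2 (60 uM addition stock) for 17 hrs at 37C. Beta-lactamase activity read with CCF4 (405 nm ex, 460/530 nm em); CellTiter-Glo viability measured in same wells.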

[21] = qHTS for H2AX Agonists against the NCATS CANVASS Library (AID 1347378);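 note: phospho-H2AX S139 level in CHO-K1 lysates by TR-FRET emission ratio; potency is the fitted concentration of half-maximal effect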
How it was run: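 Signal is the 665/620 nm emission ratio from europium cryptate and d2 antibody pair, rising with S139-phosphorylated H2AX. CHO-K1 cells saw test agents for 3 hr at 37C; detection ran 24 hr at room temperature.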

[22] = qHTS for Inflammasome Signaling Inhibitors: IL-1-beta AlphaLISA screen against the NCATS CANVASS Library (AID 1347379);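 note: human THP-1 cells primed with LPS then triggered with ATP; secreted IL-1B measured as AlphaLISA emission at 615 nm; % is set by controls: 0 for no effect and ±100 for the full control effect; lower signal means less IL-1B release which is the wanted effect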
How it was run: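 THP-1 cells pretreated 1 hr with compound (up to 57.5 uM final), then stimulated with LPS (250 ng/mL final) and ATP (1.25 mM final). Secreted IL-1B measured by AlphaLISA after 16 hr; glyburide as positive control.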

[23] = qHTS for activators of Nrf2/ARE signaling pathway screened against the NCATS CANVASS Library (AID 1347391)
How it was run: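 Plate ARE-bla HepG2 cells at 2000/well and let them settle 5 h. Pin-transfer compounds in DMSO, incubate 16 h at 37C. Load CCF4 for 2 h at room temperature and read blue/green fluorescence.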

[24] = Viability qHTS for inhibitors of the SERCaMP assay screened against the NCATS CANVASS Library (AID 1347400); note: potency is the fitted concentration of half-maximal effect; nearly all actives have a fitted effect of over 70% in size
How it was run: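 SH-SY5Y SERCaMP MJH297 cells, 1000/well; 4 h settle, 37C/5% CO2; pin-transferred cpds; 48 h; CellTiter-Glo lum. Pos ctrl bortezomib 0.0001 - 4.6 uM.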

[25] = SW1088 Cancer Cell Toxicity qHTS against the NCATS CANVASS Library (AID 1347350); note: potency is the fitted concentration of half-maximal effect; nearly all actives have a fitted effect of over 75% in size
How it was run: as §1

[26] = qHTS for ATAD5 Antagonist screened against the NCATS CANVASS Library (AID 1347370);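 note: HEK293T cells carrying an ATAD5 luciferase reporter co-treated with 10 µM 5-fluorouridine; % is set by controls: 0 for no effect and ±100 for the full control effect; nearly all actives have a fitted effect of over 65% in size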
How it was run: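 HEK293T cells with stably integrated ATAD5-luciferase reporter, 2000/well, 5 h attachment; compounds plus 10 µM 5-fluorouridine, 16 h at 37 °C. Luciferase luminescence read, with CellTiter-Fluor viability read first.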

[27] = qHTS for Hypoxia signaling pathway (HIF-1) agonists against the NCATS CANVASS Library (AID 1347375); note: potency is the fitted concentration of half-maximal effect
How it was run: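 ME-180 HRE-bla reporter cells; 2,000/well, 0.5% dialyzed FBS; cpd added after 5 h, 17 h 37C/5% CO2; CCF4-AM 2 h RT; FRET 460/530 nm; CellTiter-Glo viability same wells, 30 min.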

[28] = qHTS for Activators of p53 Stress Response Pathway screened against the NCATS CANVASS Library (AID 1347388); note: potency is the fitted concentration of half-maximal effect
How it was run: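 p53RE-bla HCT-116 cells (4000/well) were plated 5 h at 37C, exposed to compounds for 16 h at 37C over an 11-point concentration series, then loaded with CCF4 for 2 h at room temperature; 460/530 nm emission ratio read.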
Tags give direction and shape of the fitted curve.

Question: With O=C(O)[C@@]12COC3(O)C1CCN1CC[C@H]3[C@@H]1c1c2[nH]c2ccccc12 as the compound, how does the Potency [1] read?
Answer: inactive

Question: And the Potency [2]?
Answer: inactive

Question: And the Potency [3]?
Answer: inactive

Question: What about the Potency [4] of the same compound?
Answer: inconclusive: 37.2 µM [cytotoxic, single point]

Question: And the activity change, negative = inhibition [5]?
Answer: inconclusive: -30.4% [inhibitor]

Question: And the Potency [6]?
Answer: inactive

Question: What about the Potency [7] of the same compound?
Answer: inactive

Question: For Cc1cc(C)c(O)c(C(=O)CC2CC(=O)NC(=O)C2)c1, which Potency [1] is on record?
Answer: inconclusive: 10.6 µM [cytotoxic, partial curve]

Question: And the Potency [8]?
Answer: inconclusive: 1.19 µM [cytotoxic, full curve]

Question: What about the Potency [9] of the same compound?
Answer: inconclusive: 6.66 µM [cytotoxic, partial curve]

Question: What about the Potency [10] of the same compound?
Answer: inconclusive: 13.3 µM [cytotoxic, partial curve]

Question: What about the Potency [11] of the same compound?
Answer: inconclusive: 4.73 µM [cytotoxic, full curve]

Question: What about the Potency [12] of the same compound?
Answer: inconclusive: 6.66 µM [cytotoxic, full curve]

Question: What about the Potency [13] of the same compound?
Answer: inconclusive: 13.3 µM [cytotoxic, partial curve]

Question: What about the Potency [14] of the same compound?
Answer: inactive

Question: And the Potency [15]?
Answer: active: 7.43 µM

Question: And the Potency [16]?
Answer: active: 13.2 µM

Question: And the Potency [17]?
Answer: active: 2.64 µM

Question: What about the Potency [18] of the same compound?
Answer: inconclusive: 4.66 µM [cytotoxic, full curve, poor fit]

Question: And the Potency [19]?
Answer: inconclusive: 8.33 µM [cytotoxic, partial curve]

Question: What about the Potency [20] of the same compound?
Answer: active: 7.47 µM

Question: And the Potency [21]?
Answer: inconclusive: 13.7 µM [activator, partial curve]

Question: And the Potency [22]?
Answer: inactive

Question: And the Potency [23]?
Answer: inconclusive: 26.3 µM [activator, single point]

Question: And the Potency [5]?
Answer: inconclusive: 48.4 µM [inhibitor, single point]

Question: What about the Potency [6] of the same compound?
Answer: inconclusive: 0.933 µM [cytotoxic, full curve, poor fit]

Question: And the Potency [24]?
Answer: inconclusive: 3.03 µM [cytotoxic, full curve]

Question: For CNc1ccc(Cl)cc1C(=O)OC[C@]1(C)[C@H]2CC[C@]3(C)[C@@H](C[C@@H](OC)[C@H](C)[C@H]3C3=C(O)C(=O)OC3O)[C@]2(C)CC[C@H]1O (stereo partly specified), which Potency [1] is on record?
Answer: inactive

Question: And the Potency [8]?
Answer: inactive

Question: What about the Potency [25] of the same compound?
Answer: inconclusive: 26.6 µM [cytotoxic, single point]

Question: And the Potency [17]?
Answer: inconclusive: 18.7 µM [cytotoxic, partial curve]

Question: And the Potency [26]?
Answer: inactive

Question: What about the Potency [20] of the same compound?
Answer: inactive

Question: And the Potency [27]?
Answer: active: 13.3 µM

Question: And the Potency [28]?
Answer: active: 20.9 µM

Question: And the Potency [5]?
Answer: inactive
